Test results published in the supplement of paper PMC11876631.
Substitutions are numbered along the chain they refer to. Names and notes keep the numbering of the source. ± gives the standard deviation of the averaged measurements. Laboratory Escherichia coli strains with one amino-acid change in an essential protein, pooled on minimal glucose agar with carbenicillin or gentamicin at twice the control MIC (plus kanamycin and chloramphenicol for the plasmids), 48 h. Fold change of barcode share against drug-free plates; higher = less susceptible. Active = above 20 in both replicates (the paper's putatively resistant). '<' = one read or none on drug, '>' = one read or none on a drug-free plate. Shares are relative, so most strains fall below 1 when a few take over. Listed are strains with at least 15 reads on both drug-free plates, and hits; most hits rest on fewer reference reads. Replicate rank correlation about 0.5. Edits are read from barcodes.

B1: fbaA L335P (protein)
chain: MSKIFDFVKPGVITGDDVQKVFQVAKENNFALPAVNCVGTDSINAVLETAAKVKAPVIVQFSNGGASFIAGKGVKSDVPQGAAILGAISGAHHVHQMAEHYGVPVILHTDHCAKKLLPWIDGLLDAGEKHFAATGKPLFSSHMIDLSEESLQENIEICSKYLERMSKIGMTLEIELGCTGGEEDGVDNSHMDASALYTQPEDVDYAYTELSKISPRFTIAASFGNVHGVYKPGNVVLTPTILRDSQEYVSKKHNLPHNSLNFVFHGGSGSTAQEIKDSVSYGVVKMNIDTDTQWATWEGVLNYYKANEAYLQGQLGNPKGEDQPNKKYYDPRVWPRAGQTSMIARLEKAFQELNAIDVL
B2: argA L172Q (protein)
chain: MVKERKTELVEGFRHSVPYINTHRGKTFVIMLGGEAIEHENFSSIVNDIGLLHSLGIRLVVVYGARPQIDANLAAHHHEPLYHKNIRVTDAKTLELVKQAAGTLQLDITARLSMSLNNTPLQGAHINVVSGNFIIAQPLGVDDGVDYCHSGRIRRIDEDAIHRQLDSGAIVQMGPVAVSVTGESFNLTSEEIATQLAIKLKAEKMIGFCSSQGVTNDDGDIVSELFPNEAQARVEAQEEKGDYNSGTVRFLRGAVKACRSGVRRCHLISYQEDGALLQELFSRDGIGTQIVMESAEQIRRATINDIGGILELIRPLEQQGILVRRSREQLEMEIDKFTIIQRDNTTIACAALYPFPEEKIGEMACVAVHPDYRSSSRGEVLLERIAAQAKQSGLSKLFVLTTRSIHWFQERGFTPVDIDLLPESKKQLYNYQRKSKVLMADLG
B3: fbaA L107A (protein)
chain: B1 chain with L107A, P335L
B4: fbaA I120A (protein)
chain: B1 chain with I120A, P335L
B5: ffh M105A (protein)
chain: MFDNLTDRLSRTLRNISGRGRLTEDNVKDTLREVRMALLEADVALPVVREFINRVKEKAVGHEVNKSLTPGQEFVKIVRNELVAAMGEENQTLNLAAQPPAVVLAAGLQGAGKTTSVGKLGKFLREKHKKKVLVVSADVYRPAAIKQLETLAEQVGVDFFPSDVGQKPVDIVNAALKEAKLKFYDVLLVDTAGRLHVDEAMMDEIKQVHASINPVETLFVVDAMTGQDAANTAKAFNEALPLTGVVLTKVDGDARGGAALSIRHITGKPIKFLGVGEKTEALEPFHPDRIASRILGMGDVLSLIEDIESKVDRAQAEKLASKLKKGDGFDLNDFLEQLRQMKNMGGMASLMGKLPGMGQIPDNVKSQMDDKVLVRMEAIINSMTMKERAKPEIIKGSRKRRIAAGCGMQVQDVNRLLKQFDDMQRMMKKMKKGGMAKMMRSMKGMMPPGFPGR
B6: ffh M105W (protein)
chain: B5 chain with A105W
B7: ffh M105Q (protein)
chain: B5 chain with A105Q
B8: ffh L188A (protein)
chain: B5 chain with A105M, L188A
B9: ffh V48W (protein)
chain: B5 chain with V48W, A105M
B10: ffh V48Q (protein)
chain: B5 chain with V48Q, A105M
B11: ffh L104A (protein)
chain: B5 chain with L104A, A105M
B12: ffh L104W (protein)
chain: B5 chain with L104W, A105M

What follows are proteins tested against Escherichia coli (laboratory strain) (assay: barcode share on antibiotic plates over drug-free plates; higher = less susceptible). Details: antibiotic: carbenicillin; 2× MIC (3.1 µg/mL).
Experimental: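 A pool of E. coli strains, each edited to carry one amino-acid change in an essential protein, was grown for 48 h on minimal glucose agar with or without antibiotic; strain barcodes were sequenced; mean of two replicates.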

Row | Protein | fold change of barcode share
1 | B1 | 0.649 ± 0.54
2 | B2 | 0.529 ± 0.1
3 | B3 | 0.418 ± 0.16
4 | B4 | 0.415 ± 0.16
5 | B5 | 0.375 ± 0.0078
6 | B6 | 0.35 ± 0.063
7 | B7 | 0.364 ± 0.018
8 | B8 | 0.309 ± 0.081
9 | B9 | 0.447 ± 0.14
10 | B10 | 0.58042 ± 0.00041
11 | B11 | 0.649 ± 0.16
12 | B12 | 0.466 ± 0.26

Same assay, conditions: antibiotic: gentamicin; 2× MIC (MIC 0.45 µg/mL)

Row | Protein | fold change of barcode share
13 | B1 | 0.0181 ± 0.012
14 | B3 | < 0.0152
15 | B4 | 0.0143 ± 0.01
16 | B5 | 0.00416 ± 0.0026
17 | B6 | 0.00374 ± 0.0041
18 | B7 | 0.00726 ± 0.0056
19 | B8 | < 0.00317
20 | B9 | 0.0226 ± 0.0009
21 | B10 | 0.0139 ± 0.0049
22 | B11 | 0.00263 ± 0.0026
23 | B12 | 0.005 ± 0.0029
